# Test results from the supplement of paper PMC9174493.
# The other results are listed elsewhere or left out. Single values of this set are uncertain. Values with irradiation are relative to irradiated vehicle.
# Legend:
# A549-Dual [1] = assay: NF-kB reporter (SEAP) activity, viability-corrected, relative to vehicle (fold change vs vehicle); higher = more activation of STING-IRF / NF-kB immune response reporter; settings: 10 µM
# A549-Dual [2] = assay: ISRE reporter (Lucia luciferase) activity, viability-corrected, relative to vehicle (fold change vs vehicle); higher = more activation of STING-IRF / NF-kB immune response reporter; settings: 10 µM
# 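For NF-kB reporter (SEAP) activity, viability-corrected, relative to vehicle in this document: viability correction based on the alamar blue assay, with concentrations leaving 10% survival or less dropped.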
SMILES,NF-kB reporter (A549-Dual [1]; irradiation: 8 Gy/4 fr),NF-kB reporter (A549-Dual [1]; irradiation: none),ISRE reporter (A549-Dual [2]; irradiation: 8 Gy/4 fr),ISRE reporter (A549-Dual [2]; irradiation: none)
COc1ccc(CCC(=O)c2c(O)cc(OC3OC(CO)C(O)C(O)C3OC3OC(C)C(O)C(O)C3O)cc2O)cc1O (stereo unspecified) [Neohesperidin Dihydrochalcone (Nhdc)],0.666,0.583,0.654,0.483
O.O.O.O.OCC1OC(OCC2OC(OCC3OC(OC4(CO)OC(CO)C(O)C4O)C(O)C(O)C3O)C(O)C(O)C2O)C(O)C(O)C1O (stereo unspecified) [Stachyose],0.853,1.16,0.173,0.364
O=c1cc(-c2ccccc2)oc2ccccc12 [Flavone],0.608,0.994,0.305,0.53
C[n+]1ccccc1/C=N/O.[I-] [Pralidoxime Iodide],1.02,1.15,0.891,0.736
Cl.O=c1n(CCCN2CCN(c3cccc(Cl)c3)CC2)nc2ccccn12 [Trazodone HCl],0.586,0.957,0.475,0.608
CC(C)[N+]1(C)C2CCC1CC(OC(=O)C(CO)c1ccccc1)C2.[Br-] (stereo unspecified) [Ipratropium Bromide],0.842,0.919,0.981,0.762
CC12CCC3c4ccc(OC(=O)c5ccccc5)cc4CCC3C1CCC2O (stereo unspecified) [Estradiol Benzoate],0.703,1.38,0.522,0.9
COc1cc2c(cc1OC)C(Cc1cc(OC)c(OC)c(OC)c1)[N+](C)(CCCOC(=O)CC/C=C/CCC(=O)OCCC[N+]1(C)CCc3cc(OC)c(OC)cc3C1Cc1cc(OC)c(OC)c(OC)c1)CC2.[Cl-].[Cl-] (stereo unspecified) [Mivacurium chloride],0.587,1.32,0.668,0.718
COc1ccc2ccc(=O)oc2c1 [7-Methoxycoumarin],0.718,0.568,0.72,0.399
N=C(NCCCCCCNC(=N)NC(=N)Nc1ccc(Cl)cc1)NC(=N)Nc1ccc(Cl)cc1 [Chlorhexidine],1.77,–,0.359,–
CNCC(O)c1ccc(O)c(O)c1.Cl (stereo unspecified) [Epinephrine HCl],0.925,1.31,0.857,0.643
CC(=O)NO [Acetohydroxamic acid],0.992,1,0.812,0.648
CNC1C(O)C(OC2C(N)CC(N)C(OC3OC(CN)=CCC3N)C2O)OCC1(C)O.CNC1C(O)C(OC2C(N)CC(N)C(OC3OC(CN)=CCC3N)C2O)OCC1(C)O.O=S(=O)(O)O.O=S(=O)(O)O.O=S(=O)(O)O.O=S(=O)(O)O.O=S(=O)(O)O (stereo unspecified) [Sisomicin sulfate],0.827,0.843,0.896,0.884
O=C(O)CC(O)(CC(=O)O)C(=O)O [Citric acid],0.924,0.88,0.885,0.781
C[C@H](O)[C@@H](O)[C@@H](O)[C@H](O)C=O [L-Fucose],1.9,–,1.75,–
Cc1[nH]c2ccccc2c1CCNCc1ccc(/C=C/C(=O)NO)cc1 [Panobinostat (LBH589)],–,5.8,–,2.73
OC1(c2ccc(Cl)c(C(F)(F)F)c2)CCN(CCCC(c2ccc(F)cc2)c2ccc(F)cc2)CC1 [Penfluridol],1,–,0.861,–
CC(=O)O.Cc1c(-c2ccc(O)cc2)n(Cc2ccc(OCCN3CCCCCC3)cc2)c2ccc(O)cc12 [Bazedoxifene Acetate],0.621,1.01,0.701,2.34
O=C(O)c1cccc(-c2noc(-c3ccccc3F)n2)c1 [Ataluren (PTC124)],0.711,0.491,0.704,0.359
CCCCc1oc2ccc(NS(C)(=O)=O)cc2c1C(=O)c1ccc(OCCCN(CCCC)CCCC)cc1 [Dronedarone],–,2.54,–,0.858
CO/N=C(\C(=O)N[C@@H]1C(=O)N2C(C(=O)O)=C(Cn3ccc(=N)n3CCO)CS[C@H]12)c1csc(N)n1.O=S(=O)(O)O [Cefoselis Sulfate],0.821,0.923,0.797,0.822
CS(=O)(=O)O.O=C(NC1CCN(CCCCC2(C(=O)NCC(F)(F)F)c3ccccc3-c3ccccc32)CC1)c1ccccc1-c1ccc(C(F)(F)F)cc1 [Lomitapide Mesylate],–,1.54,–,1.98
CC1OC(OC2CCC3(C)C(CCC4(C)C3C=CC35OCC6(CCC(C)(C)CC63)C(O)CC45C)C2(C)CO)C(O)C(OC2OC(CO)C(O)C(O)C2O)C1O (stereo unspecified) [Saikosaponin D],–,2.26,–,0.456
Cc1nc2n(c(=O)c1CCN1CCC(c3noc4cc(F)ccc34)CC1)CCCC2 [Risperidone],0.703,1.24,0.547,0.669
CC(=O)O.CCC(C)C1NC(=O)C(Cc2ccc(O)cc2)NC(=O)C(N)CSSCC(C(=O)N2CCCC2C(=O)NC(CC(C)C)C(=O)NCC(N)=O)NC(=O)C(CC(N)=O)NC(=O)C(CCC(N)=O)NC1=O (stereo unspecified) [Oxytocin (Syntocinon)],0.866,0.653,0.863,0.606
